In the supplement of paper PMC4967469:

Tests used:
Experiment in all cases: Viability of human cancer cell lines after 72 h of drug (GDSC screen)
[1] = compound: Nc1ccn([C@@H]2O[C@H](CO)[C@@H](O)C2(F)F)c(=O)n1 [Gemcitabine]; conditions: top dose 1.024 µM
Description: (§1)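 Human cancer cell lines in 384-well plates, medium with 10% serum, drug for 72 h over a 256-fold dose range (nine 2-fold or five 4-fold steps up to the top dose). Adherent lines were fixed and stained with the nucleic acid dye Syto60, suspension lines read with resazurin; signal relative to control wells, capped at 0 and 100%. One two-parameter sigmoid per drug and line, fitted in a mixed model over all curves with the slope shared within a line.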

[2] = compound: NC(=O)c1cccc(-c2cc(Nc3ccc(OC(F)(F)F)cc3)ncn2)c1 [GNF-2]; conditions: top dose 1.28 µM; top dose inferred
Description: as §1

[3] = compound: Cc1cn(-c2cc(NC(=O)c3ccc(C)c(Nc4nccc(-c5cccnc5)n4)c3)cc(C(F)(F)F)c2)cn1 [Nilotinib]; conditions: top dose 2 µM
Description: as §1

[4] = compound: C/C(O)=C(\C#N)C(=O)Nc1cc(Br)ccc1Br [LFM-A13]; conditions: top dose 16 µM; top dose inferred
Description: as §1

[5] = compound: CCNC(=O)c1noc(-c2cc(C(C)C)c(O)cc2O)c1-c1ccc(CN2CCOCC2)cc1 [AUY922]; conditions: top dose 0.256 µM; top dose inferred
Description: as §1

[6] = compound: CC(O)(CS(=O)(=O)c1ccc(F)cc1)C(=O)Nc1ccc(C#N)c(C(F)(F)F)c1 [Bicalutamide]; conditions: top dose inferred
Description: as §1

[7] = compound: CC(C)c1ccccc1Cc1cc(C(=O)Nc2ccc(S(=O)(=O)c3ccccc3C(C)(C)C)cc2)c(O)c(O)c1O [TW-37]; conditions: top dose 5 µM
Description: as §1

[8] = compound: S=C(NCc1ccc2c(c1)OCO2)N1CCN(c2ncnc3c2oc2ccccc23)CC1 [MP470]; conditions: top dose 20 µM; top dose inferred
Description: as §1

[9] = compound: Cc1ccc(Nc2cc(-c3cccc(N4C(=O)c5ccccc5C4=O)c3)ncn2)cc1NS(C)(=O)=O [KIN001-270]; conditions: top dose 20 µM; top dose inferred
Description: as §1

[10] = compound: O=S(=O)(c1ccccc1)N(CC(F)(F)F)c1ccc(C(O)(C(F)(F)F)C(F)(F)F)cc1 [T0901317]; conditions: top dose 10.24 µM; top dose inferred
Description: as §1

[11] = top dose 1.024 µM, screen: GDSC drug entry 150
[12] = top dose 10 µM, screen: GDSC drug entry 1502

| Cell Line | AUC [1] | IC50 [1] [nM] | AUC [2] | IC50 [2] [nM] | AUC [3] | IC50 [3] [nM] | AUC [4] | IC50 [4] [nM] | AUC [5] | IC50 [5] [nM] | AUC [6, 11] | IC50 [6, 11] [nM] | AUC [6, 12] | IC50 [6, 12] [nM] | AUC [7] | IC50 [7] [nM] | AUC [8] | IC50 [8] [nM] | AUC [9] | IC50 [9] [nM] | AUC [10] | IC50 [10] [nM] |
| --- | --- | --- | --- | --- | --- | --- | --- | --- | --- | --- | --- | --- | --- | --- | --- | --- | --- | --- | --- | --- | --- | --- |
| DJM-1 (skin, adherent) | 0.352 | 25 | 0.988 | > 1280 | 0.97 | > 2000 | 0.949 | > 16000 | 0.562 | 23.6 | 0.988 | > 1020 | 0.986 | > 10000 | 0.612 | 632 | 0.918 | > 20000 | 0.958 | > 20000 | 0.97 | > 10200 |
| DMS-79 (small cell lung carcinoma, suspension) | 0.907 | > 1020 | 0.967 | > 1280 | 0.987 | > 2000 | 0.984 | > 16000 | 0.936 | > 256 | 0.987 | > 1020 | 0.977 | > 10000 | 0.711 | 1380 | 0.915 | > 20000 | 0.965 | > 20000 | 0.987 | > 10200 |
| DMS-114 (small cell lung carcinoma, adherent) | 0.977 | > 1020 | 0.985 | > 1280 | 0.985 | > 2000 | 0.984 | > 16000 | 0.896 | > 256 | 0.982 | > 1020 | 0.96 | > 10000 | 0.339 | 104 | 0.896 | > 20000 | 0.971 | > 20000 | 0.974 | > 10200 |
| DND-41 (T-cell leukaemia, suspension) | 0.429 | 41.9 | 0.99 | > 1280 | 0.973 | > 2000 | 0.93 | > 16000 | 0.527 | 18.8 | 0.986 | > 1020 | 0.98 | > 10000 | 0.731 | 1290 | 0.835 | 11000 | 0.944 | > 20000 | 0.973 | > 10200 |
| DSH1 (bladder, adherent) | 0.582 | 106 | 0.989 | > 1280 | 0.944 | > 2000 | 0.946 | > 16000 | 0.647 | 40 | 0.989 | > 1020 | 0.988 | > 10000 | 0.616 | 642 | 0.939 | > 20000 | 0.989 | > 20000 | 0.987 | > 10200 |
| DU-4475 (breast, suspension) | 0.14 | 6.66 | 0.992 | > 1280 | 0.902 | 1750 | 0.958 | > 16000 | 0.429 | 10.7 | 0.984 | > 1020 | 0.983 | > 10000 | 0.623 | 635 | 0.962 | > 20000 | 0.95 | > 20000 | 0.991 | > 10200 |
| Daudi (Burkitt lymphoma, suspension) | 0.682 | 191 | 0.988 | > 1280 | 0.983 | > 2000 | 0.972 | > 16000 | 0.484 | 14.6 | 0.99 | > 1020 | 0.99 | > 10000 | 0.641 | 726 | 0.664 | 3340 | 0.934 | > 20000 | 0.959 | > 10200 |
| EB2 (Burkitt lymphoma, suspension) | 0.08 | < 4 | 0.99 | > 1280 | 0.99 | > 2000 | 0.987 | > 16000 | 0.602 | 29.5 | 0.985 | > 1020 | 0.989 | > 10000 | 0.614 | 624 | 0.928 | > 20000 | 0.955 | > 20000 | 0.899 | > 10200 |
| EB-3 (Burkitt lymphoma, suspension) | 0.949 | > 1020 | 0.98 | > 1280 | 0.984 | > 2000 | 0.976 | > 16000 | 0.752 | 97.8 | 0.983 | > 1020 | 0.972 | > 10000 | 0.921 | > 5000 | 0.955 | > 20000 | 0.894 | > 20000 | 0.956 | > 10200 |
| EC-GI-10 (oesophagus, adherent) | 0.967 | > 1020 | 0.989 | > 1280 | 0.988 | > 2000 | 0.987 | > 16000 | 0.94 | > 256 | 0.984 | > 1020 | 0.982 | > 10000 | 0.589 | 547 | 0.701 | 4570 | 0.963 | > 20000 | 0.988 | > 10200 |
| EJM (lymphoid neoplasm, semi-adherent) | 0.724 | 244 | 0.992 | > 1280 | 0.988 | > 2000 | 0.99 | > 16000 | 0.728 | 62.5 | 0.992 | > 1020 | 0.99 | > 10000 | 0.606 | 580 | 0.806 | 8290 | 0.95 | > 20000 | 0.987 | > 10200 |
| EM-2 (chronic myeloid leukaemia, suspension) | 0.62 | 143 | 0.628 | 190 | 0.096 | < 7.81 | 0.979 | > 16000 | 0.704 | 65.5 | 0.98 | > 1020 | 0.976 | > 10000 | 0.572 | 504 | 0.871 | > 20000 | 0.955 | > 20000 | 0.934 | > 10200 |

IC50 is the fitted dose that halves viability relative to control wells, and lower means more sensitive; a limit (>, <) means that the fit lies beyond the doses tested. AUC is the area under the same curve over the 256-fold range up to the top dose, as a fraction; values near 1 show little effect. For part of these data: Any top dose called inferred was derived from the fitted curves, not read from the paper. For part of these data: An entry number marks a drug with two screens in the source, which often give different values.
